# Measurements taken from the supplement of paper PMC4723716.
# ± gives the uncertainty stated by the source. Whole data set: some 9,900 compounds, median “viability index relative to DMSO control” near 1, cut for the lowest 2% near 0.85. This is one part of the list.
# Test system: Plasmodium falciparum NF54 stage V gametocytes
# Assay: viability index relative to DMSO control (fraction); higher = less gametocyte killing
# Settings: 2.5 µM, incubation time: 72 h
# Method in brief: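 P. falciparum NF54 stage V gametocytes (serum-free medium, 0.75% gametocytemia, 1.25% hematocrit) were exposed to compound at 2.5 µM for 72 hr at 37°C under low oxygen, then stained with MitoTracker Red CMXRos and saponin for one to two hours. Red particles of 20–70 µm2 in one field per well were counted, and the viability index is that count scaled to the plate mean of solvent-only wells.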
# [1] = library set: Broad Institute DOS
SMILES,viability index [1],viability index (library set: Broad Institute Blood Stage)
CO[C@@H]1CC[C@@H]2CCOc3c(C#N)cccc3C(=O)N(C)CCCC(=O)N(C)C[C@H]1O2,0.98 ± 0.045,
CC(C)NC(=O)N1[C@@H]2CNC[C@H]1[C@@H]2c1ccc(/C=C/c2ccccc2)cc1,1.06 ± 0.068,
CCCC#Cc1ccc2c(c1)O[C@@H](CN(C)Cc1ccccn1)[C@H](C)CN([C@H](C)CO)S2(=O)=O,0.865 ± 0.088,
CCCNC(=O)N1C[C@]2(CN(Cc3cccc(F)c3)C2)c2c([nH]c3cc(OC)ccc23)[C@@H]1CO,0.903 ± 0.12,
CCC(=O)N1C[C@@H](O)COC[C@@H]2O[C@H](CC(=O)NCc3ccc(Oc4ccccc4)cc3)CC[C@H]21,1.06 ± 0.023,
C/C=C/c1ccc([C@H]2[C@@H](CO)N(C(=O)c3ccccn3)C23CN(CCC(F)(F)F)C3)cc1,1.076 ± 0.0094,
O=C(C[C@@H]1CC[C@@H]2[C@H](COC[C@H](O)CN2CC2CCOCC2)O1)NCc1ccc(Cl)cc1,1.07 ± 0.12,
O=C(NC1CCCCC1)N1CC(=O)N2[C@H](CO)[C@@H](c3ccc(-c4ccncc4)cc3)[C@H]2C1,1.058 ± 0.0052,
Cc1ccc(S(=O)(=O)N[C@H]2CC[C@@H](CC(=O)NCc3ccncn3)O[C@@H]2CO)cc1,1.01 ± 0.11,
N#C[C@H]1[C@H](c2ccccc2C2=CCCC2)[C@@H](CO)N1C(=O)C1CCOCC1,1.19 ± 0.085,
C/C=C/c1ccc([C@H]2[C@@H](CO)N3C(=O)CN(C(=O)Nc4cccc(OC)c4)C[C@H]23)cc1,1.03 ± 0.056,
CCC(=O)N1CC[C@@H]2[C@H](CO)Nc3ccc(C#Cc4ccccc4F)cc3[C@@H]21,1.12 ± 0.031,
COc1ccc(NC(=O)N2CC[C@@]3(CC2)CN([C@@H](CO)c2[nH]c4cc(OC)ccc4c32)C(=O)CN2CCOCC2)cc1,1.05 ± 0.076,
COc1ccc(NC(=O)Nc2cccc3c2O[C@@H](CN(C)Cc2ccc(C(=O)O)cc2)[C@@H](C)CN([C@@H](C)CO)C3=O)cc1,0.95 ± 0.17,
CC(C)(O)C#Cc1ccc([C@H]2[C@@H](CO)N3CCCCN(S(C)(=O)=O)C[C@H]23)cc1,1.096 ± 0.002,
Cc1ccccc1S(=O)(=O)Nc1ccc2c(c1)C(=O)N(C)[C@H]1CC[C@H](CC(=O)O)O[C@@H]1CO2,0.974 ± 0.046,
Cc1noc(C)c1S(=O)(=O)Nc1ccc2c(c1)C(=O)N([C@@H](C)CO)C[C@H](C)[C@H](CN(C)C(=O)NC1CCCCC1)O2,1.04 ± 0.053,
C[C@@H]1CN([C@H](C)CO)C(=O)c2cc(NS(C)(=O)=O)ccc2O[C@@H]1CN(C)C,1.01 ± 0.047,
CO[C@H]1CN(C)C(=O)c2cc(NC(=O)c3nc4ccccc4s3)ccc2OC[C@H](C)NC[C@@H]1C,1.0273 ± 0.00044,
N#C[C@@H]1[C@H](c2ccccc2-c2cccc(F)c2)[C@@H](CO)N1C(=O)NC1CCCCC1,1.12 ± 0.13,
CNC[C@H]1Oc2cc(C#Cc3ccccc3OC)ccc2S(=O)(=O)N([C@H](C)CO)C[C@@H]1C,0.893 ± 0.059,
O=C(NCC[C@H]1CC[C@H](NS(=O)(=O)c2ccc(F)cc2)[C@@H](CO)O1)c1ccc2c(c1)OCO2,0.982 ± 0.09,
O=C1Nc2ccccc2OCc2cn(nn2)CC[C@H]1Cc1ccc(-c2ccccc2)cc1,1.02 ± 0.17,
O=C(C[C@@H]1CC[C@H]2NC[C@@H](O)COC[C@@H]2O1)NC1Cc2ccccc2C1,0.9847 ± 0.0032,

SMILES,viability index [1],viability index (library set: Broad Institute Blood Stage)
C[C@H](NC(=O)C[C@@H]1C=C[C@@H](NC(=O)c2cccnc2)[C@H](CO)O1)c1ccccc1,0.915 ± 0.027,
CC(C)(C)[S@](=O)N1Cc2cc(C(=O)NCc3ccccn3)nc(-c3cccc(-c4ccccc4F)c3)c2[C@@H]1CCO,0.955 ± 0.08,
O=C(C[C@H]1C=C[C@H](NC(=O)C2CCC2)[C@H](CO)O1)NC1CCCCC1,1.03 ± 0.085,
O=C(C1CCCCC1)N1CC2(C1)[C@H](c1ccccc1)[C@H](CO)N2C(=O)c1cccnc1,0.9886 ± 0.007,
CO[C@@H]1CC[C@H]2CCOc3ccc(C#N)cc3C(=O)N(C)C[C@H](c3ccccc3)CC(=O)N(C)C[C@@H]1O2,1.022 ± 0.0057,
CN(C)C(=O)c1cccc(-c2ccc([C@H]3[C@H]4CNC[C@@H]3N4C(=O)Nc3cccc(Cl)c3)cc2)c1,1.11 ± 0.043,
C[C@H](CO)N1C[C@H](C)[C@@H](CN(C)C(=O)Nc2ccnc(N3CCOCC3)c2)OCc2cnnn2CCCC1=O,0.9846 ± 0.0032,
C[C@@H]1CN([C@H](C)CO)C(=O)Cc2cc(NS(=O)(=O)c3ccc(Cl)cc3)ccc2O[C@@H]1CN(C)C(=O)Nc1ccc(C(F)(F)F)cc1,1.02 ± 0.051,
COCC(=O)N1[C@H](CO)[C@H](c2ccc(C#Cc3ccccc3F)cc2)[C@@H]1C#N,1.04 ± 0.064,
COc1ccc(S(=O)(=O)N(C)C[C@H]2OCCCC[C@@H](C)Oc3ccc(NC(=O)Cc4ccccc4)cc3C(=O)N([C@@H](C)CO)C[C@@H]2C)cc1,1.07 ± 0.17,
COc1ccccc1NC(=O)N1CCCCN2[C@H](CO)[C@@H](c3ccc(-c4cccc(C#N)c4)cc3)[C@H]2C1,1.02 ± 0.021,
C/C=C/c1ccc2n(c1=O)C[C@@H]1[C@@H](CO)[C@H](C(=O)NCC)N(Cc3cccc(F)c3)[C@H]21.C/C=C\c1ccc2n(c1=O)C[C@@H]1[C@@H](CO)[C@H](C(=O)NCC)N(Cc3cccc(F)c3)[C@H]21,0.99 ± 0.091,
COc1cccc(C(=O)Nc2ccc3c(c2)C(=O)N(C)[C@H]2CC[C@@H](CC(=O)NCc4ccc(F)cc4)O[C@H]2CO3)c1,0.9078 ± 0.0035,
CCCNC(=O)N(C)C[C@H]1Oc2cc(C#C[C@@H](C)O)ccc2S(=O)(=O)N([C@@H](C)CO)C[C@H]1C,0.915 ± 0.15,
C[C@@H]1CCCCO[C@@H](CN(C)C(=O)CCCN(C)C)[C@H](C)CN([C@H](C)CO)C(=O)c2cc(NC(=O)Nc3ccc4c(c3)OCO4)ccc2O1,1.08 ± 0.012,
COc1ccc2c3c([nH]c2c1)[C@H](CO)N(Cc1ccncc1)C[C@]31CN(C1)C(=O)CN(C)C,1.04 ± 0.071,
Cc1ccccc1-c1ccc([C@@H]2[C@@H](CO)N3CCCCN(S(=O)(=O)Cc4ccccc4)C[C@H]23)cc1,0.915 ± 0.057,
N#C[C@H]1[C@@H](c2ccccc2-c2ccccc2F)[C@H](CO)N1C(=O)C1CCC1,1.14 ± 0.18,
CCS(=O)(=O)Nc1ccc2c(c1)C(=O)N(C)[C@@H]1CC[C@@H](CC(=O)NCCCN3CCOCC3)O[C@@H]1CO2,1.07 ± 0.043,
O=C(Cc1ccccn1)N[C@H]1CC[C@H](CCNS(=O)(=O)c2cccc(F)c2)O[C@@H]1CO,0.969 ± 0.029,
Cc1cc(C(=O)Nc2cccc3c2O[C@H](CN(C)C)[C@@H](C)CN([C@@H](C)CO)C3=O)n(C)n1,0.95 ± 0.13,
O=C(C[C@H]1C[C@@H]2c3cc(NS(=O)(=O)c4ccc(F)cc4)ccc3O[C@@H]2[C@H](CO)O1)NCCN1CCCCC1,1.03 ± 0.042,
Cc1ccccc1S(=O)(=O)Nc1ccc2c(c1)C(=O)N(C)[C@@H]1CC[C@@H](CC(=O)O)O[C@@H]1CO2,1.1 ± 0.13,
OC[C@H]1[C@@H](c2ccc(-c3ccc(F)cc3)cc2)[C@@H]2CN(CCC(F)(F)F)CCCCN12,,0.959 ± 0.057

SMILES,viability index [1],viability index (library set: Broad Institute Blood Stage)
CO[C@H]1CN(C)C(=O)c2ccc(NS(C)(=O)=O)cc2OC[C@@H](C)N(CC2CC2)C[C@@H]1C,1.04 ± 0.02,
C[C@@H]1CCCCO[C@H](CN(C)Cc2ccncc2)[C@H](C)CN([C@@H](C)CO)C(=O)c2cc(NS(=O)(=O)c3ccc(Cl)cc3)ccc2O1,1.04 ± 0.012,
C[C@@H]1CN([C@H](C)CO)C(=O)CCCn2nncc2CO[C@H]1CN(C)C(=O)c1ccc(N2CCN(C)CC2)cc1,1.03 ± 0.024,
CCCC#Cc1ccc2c(c1)O[C@H](CN(C)Cc1ccccn1)[C@H](C)CN([C@@H](C)CO)S2(=O)=O,0.847 ± 0.015,
CO[C@@H]1CN(C)C(=O)c2ccc(NS(C)(=O)=O)cc2OC[C@@H](C)N(CC2CC2)C[C@@H]1C,1.07 ± 0.034,
C[C@@H]1CCCCO[C@@H](CN(C)C(=O)C2CCCCC2)[C@H](C)CN([C@@H](C)CO)C(=O)c2cc(NS(=O)(=O)c3ccccc3)ccc2O1,1.07 ± 0.034,
O=C(C[C@@H]1C=C[C@@H](NC(=O)C2CCC2)[C@H](CO)O1)NC1CCCCC1,0.977 ± 0.18,
N#C[C@H]1[C@H](c2ccc(C#Cc3ccccc3F)cc2)[C@H](CO)N1C(=O)c1cccnc1,1.05 ± 0.026,
COc1ccc(C#Cc2ccc3c(c2)[C@H]2[C@H](CCN2S(=O)(=O)c2ccccc2C)[C@@H](CO)N3C)cc1,1.07 ± 0.0059,
O=C(C[C@H]1CC[C@H]2[C@@H](COC[C@H](O)CN2CC2CCOCC2)O1)NCc1ccc(Cl)cc1,1.05 ± 0.046,
CCCC(=O)Nc1ccc2c(c1)OC[C@H](C)N(S(=O)(=O)c1cn(C)cn1)C[C@H](C)[C@@H](OC)CN(C)C2=O,1.11 ± 0.086,
CCCN1C[C@H](C)[C@H](OC)CN(C)C(=O)c2cc(NC(=O)Nc3cccc(F)c3)ccc2OC[C@@H]1C,1.08 ± 0.033,
C[C@@H]1CN([C@@H](C)CO)C(=O)c2cc(NS(=O)(=O)c3cn(C)cn3)ccc2O[C@@H]1CN(C)C(=O)Nc1cccc2ccccc12,0.97 ± 0.055,
CC(C)[C@H]1COCc2cn(nn2)CCC[C@@H](C)C(=O)N1,0.919 ± 0.12,
CN1C(=O)c2cc(NS(=O)(=O)c3cccc(F)c3)ccc2OC[C@H]2O[C@@H](CC(=O)N3CCc4ccccc4C3)CC[C@@H]21,1.02 ± 0.04,
C/C=C/c1ccc([C@@H]2[C@H]3CNC[C@@H]2N3C(=O)NC2CCCCC2)cc1,1.044 ± 0.0029,
COc1ccc([C@@H]2C/C=C\C[C@H](c3ccc4c(c3)OCO4)NC(=O)CCC(=O)N2)c(OC)c1,1.08 ± 0.012,
C[C@H](CO)N1C[C@H](C)[C@@H](CN(C)C(=O)NC2CCCC2)OCc2cnnn2CCCC1=O,0.992 ± 0.098,
COCC(=O)N1C[C@@H]2[C@H](c3ccccc31)[C@H](CO)N2Cc1cc(F)ccc1F,1.02 ± 0.14,
C[C@@H]1CN([C@@H](C)CO)C(=O)c2cccc(N(C)C)c2O[C@H]1CN(C)C(=O)Nc1ccc(F)cc1,0.916 ± 0.068,
C[C@@H]1CN([C@H](C)CO)C(=O)Cc2cc(N(C)C)ccc2O[C@@H]1CN(C)C(=O)NC1CCCCC1,0.981 ± 0.11,
O=C(C[C@@H]1C=C[C@H](NC(=O)c2cnccn2)[C@H](CO)O1)NCc1ccccc1F,1.03 ± 0.18,
